From patent US8735609B2, “Bryostatin analogues, synthetic methods and uses” (The Board of Trustees of the Leland Stanford Junior …, priority 2007, dated 2014)

Test system: NCI-H322M
Assay: cells
Description: Another useful method for assessing anticancer activities of compounds of the invention involves the multiple-human cancer cell line screening assays run by the National Cancer Institute. This screening panel, which involves approximately 60 different human cancer cell lines, is a useful indicator of in vivo antitumor activity for a broad variety of tumor types, such as leukemia, non-small cell lung, colon, central nervous system (CNS), melanoma, ovarian, renal, prostate, and breast cancers. Antitumor activities can be expressed in terms of ED50 (or GI50), where ED50 is the molar concentration of compound effective to reduce cell growth by 50%. Compounds with lower ED50 values tend to have greater anticancer activities than compounds with higher ED50 values. Example 7 describes a P388 murine lymphocytic leukemia cell assay which measures the ability of compounds of the invention to inhibit cellular growth.
Anticancer data were obtained in vitro for C26 desmethyl bryostatin analogue 702.1 (Example 3A) tested against a spectrum of different NCI human cancer cell-lines associated with various cancer conditions. Data obtained with Bryostatin-1 are included for comparison. Growth inhibition (GI50) values are expressed as the log of molar concentration at half-maximum inhibition.

SMILES	Growth inhibition (GI50) (NSC Lung)	GI50 (Homo sapiens, read-out: Growth inhibition (GI50) (converted))
CCC/C=C/C=C/C(=O)O[C@H]1/C(=C/C(=O)OC)C[C@H]2C[C@H]([C@@H](C)O)OC(=O)C[C@H](O)C[C@@H]3C[C@H](OC(C)=O)C(C)(C)[C@](O)(C[C@@H]4C/C(=C/C(=O)OC)C[C@H](/C=C/C(C)(C)[C@]1(O)O2)O4)O3 [Bryo-1, Bryostatin-1, reference compound]	−6.00 log of molar concentration	–
CCCCCCCC(=O)O[C@H]1/C(=C/C(=O)OC)C[C@H]2C[C@H](CO)OC(=O)C[C@H](O)C[C@@H]3CCC[C@H](C[C@@H]4CCO[C@H](/C=C/C(C)(C)[C@]1(O)O2)O4)O3 [Formula IIa (702.1)]	–	41.7 µM
